Measurements reported in PubChem BioAssay AID1963576 (National Center for Advancing Translational Sciences (NCATS), 2024).
Among all 46,000 compounds or so, about 60 (0.1%) were called active. Another 3% or so got no clear call; they are omitted. Calls come from the whole dose curve; as a rule, active = well fitted inhibition curve with a large enough effect; inconclusive = small, poorly fitted or top-dose-only effect; inactive = no such curve, though single readings can be large or run the other way. The list shows a part of the results.

Test: Primary qHTS assay for Inhibitors of ovarian cancer metastasis using an organotypic tumor microenvironment (TME) model.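 For activity change, negative = inhibition: plate controls were DMSO wells for no effect and tomatine positive control wells for full effect.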 Note: nearly all actives have a fitted effect of over 65% in size.
Settings: SKOV3ip1-GFP adhesion/invasion on 3D omental model, fluorescence; series mostly up to 45.8 µM; activity change, negative = inhibition: at the top concentration
Summary of the method: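 Primary human omental fibroblast/mesothelial 3D culture pre-formed 48 h. SKOV3ip1-GFP cells added with compounds (0.36-46 umol/L), incubated 2 h RT/16 h 37 C, fixed; GFP cells quantified at 488/509 nm.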

outcome, inactive:
CCC(C)NC(=O)Cn1ccc2cc(S(=O)(=O)N3CCCCCC3)ccc21 (stereo not drawn), O=C(CCNS(=O)(=O)c1ccc2c(c1)CCN2C(=O)C1CC1)Nc1ccc(OC(F)(F)F)cc1, CCOC(=O)c1ccc(NC(=O)C2=C(C)C(=O)OC23CCN(C(C)C)CC3)cc1, COc1ccc(-c2cc(C(F)(F)F)nc(SCC(=O)NC(C)c3ccccc3)n2)cc1 (stereo not drawn), CCOc1ccc(N(CC)C(=O)Cn2cnc3sc(C)c(S(=O)(=O)N4CCN(c5ncccn5)CC4)c3c2=O)cc1, O=C(NCC(c1cccnc1)N1CCc2ccccc21)c1ccc(Cl)cc1 (stereo not drawn), Cc1cc(O)c(CN2CCN(c3ccccc3)CC2)c2oc(=O)cc(C)c12, Cc1ccc(NC(=O)CCCn2nc(C)c3c(C)n(-c4ccccc4)nc3c2=O)c(Cl)c1, CCCN1C(C(=O)c2ccccc2)=C(OC(=O)COc2ccc(C)cc2)c2ccccc2S1(=O)=O, Cc1nc(-c2ccc(S(=O)(=O)NCc3ccccc3Cl)cc2)co1, Cc1cc(C)cc(N(CC(=O)Nc2c(C)cc(C)cc2C)S(=O)(=O)c2c(C)nn(C)c2C)c1, COc1ccc2oc(-c3cccc(NC(=O)c4cc([N+](=O)[O-])ccc4N4CCOCC4)c3)nc2c1, CCOc1ccccc1NC(=O)CCS(=O)(=O)c1ccc2c(c1)oc(=O)n2C, COc1ccc(NC(=O)CC2C(=O)N(c3ccccc3)C(=O)N2CCc2sccc2C)cc1 (stereo not drawn), CCOc1ccc(CNC(=O)C2CCCN(c3nn4cc(-c5ccc(OC)cc5)nc4s3)C2)cc1 (stereo not drawn), Cc1ccc(S(=O)(=O)N(CC(=O)Nc2cccnc2)c2cc(Cl)ccc2C)cc1, Cc1ccc(CN2CCC(CNC(=O)c3cnn(-c4ccc(C)cc4)c3C3CCN(C(=O)OC(C)(C)C)CC3)CC2)cc1, Cc1ccc(C(=O)CSc2nc3cc(C(=O)NC4CCCC4)ccc3c(=O)n2CC2CCCO2)c(C)c1 (stereo not drawn), CC(C)CCNc1nc2c(-c3ccccc3)nnn2c2ccccc12, Cc1nn2c(=O)cc(COc3ccc(/C=C(\C#N)C(=O)Nc4ccccc4C)cc3)nc2s1, COc1ccc(-c2nnn3c2nc(NCCc2ccc(OC)c(OC)c2)c2ccccc23)cc1, COc1ccc2c(c1)c1c(c(=O)n(-c3cc(Cl)ccc3C)c(=O)n1CC(=O)N1CCCC1)n2C, COc1ccccc1NC(=O)c1ncn(-c2ccccc2)n1, CCCCn1cc2c(c1-c1ccc(Br)cc1)c(=O)n(C)c(=O)n2C, CCOc1ccc(-c2cc3c(=O)n(Cc4nc(-c5ccc(OCC)c(OC)c5)oc4C)ccn3n2)cc1Cl, CCOc1ccc(OCC)c(NC(=O)c2cnn(-c3ccc(F)cc3)c2-n2cccc2)c1, O=c1c2sc3ccccc3c2n(Cc2cccc(Cl)c2)c(=O)n1Cc1ccccc1

Activity change, negative = inhibition, inactive:
COc1cccc(C(=O)Nc2ccc3nc(SCCOc4ccccc4)sc3c2)c1 -20.8%, CCCCc1ccc(NS(=O)(=O)c2ccc(C)c(C(=O)N3CCN(c4cccc(C)c4C)CC3)c2)cc1 14.3%, Cc1ccc2c(=O)cc(C(=O)Nc3sc4c(c3C(=O)NCc3cccnc3)CCCC4)oc2c1 -4.85%, COc1cccc2cc(C(=O)Nc3ccc(C)cc3)c(=O)oc12 -0.558%, Cc1ccc(CCNC(=O)c2ccc3c(c2)N(Cc2cccc(F)c2)C(=O)c2ccccc2S3)cc1 2.2%, Cc1cc(NS(=O)(=O)c2ccc(NC(=O)COc3cc(C)c(Br)cc3C(C)C)cc2)no1 -4.97%, CC(C)CCNC(=O)c1ccc2nc(Cc3ccccc3)oc2c1 8.04%, Cc1ccc(CN(C(=O)COc2ccc(F)cc2)C2CCS(=O)(=O)C2)o1 (stereo not drawn) 1.71%, CCn1cc(S(=O)(=O)c2ccccc2)c(=O)c2cc(F)c(F)cc21 8.08%, CCCSCCCNC(=O)Cn1c(-c2cccs2)cc2ccccc21 2.2%, CCOC(=O)c1cc(NC(=O)c2ccc(F)cc2)c(=O)n2c1oc1ccc(Cl)cc12 -1.31%, O=C(Nc1c2c(nn1-c1ccc(Cl)cc1)CS(=O)(=O)C2)c1ccc(Br)cc1 8.24%, COc1ccc(S(=O)(=O)N(CC(=O)Nc2ccc(Br)cc2)Cc2ccccc2)cc1 -0.252%, Cc1ccc(NC(=O)C2CCCN(S(=O)(=O)c3cccs3)C2)c(C)c1 (stereo not drawn) -0.8%, COC(=O)CN1C(C(=O)c2ccccc2)=C(OC(=O)c2ccccc2)c2ccccc2S1(=O)=O -6.95%, CCCCN(CCCC)C(=O)c1c[nH]c2ccc(S(=O)(=O)Nc3cccc(Cl)c3C)cc2c1=O 0.0415%, Cc1ccc(C(=O)Nc2cnc3ccccn3c2=O)cc1 3.96%, CCCn1c2ccccc2c2cnn(CC(=O)N3CCCC(C(=O)OCC)C3)c(=O)c21 (stereo not drawn) -5.19%, CCN(CC)CCCNC(=O)c1sc2nc3n(c(=O)c2c1C)CCCCC3 -0.88%, CN(CC(=O)Nc1ccc(F)cc1F)S(=O)(=O)c1cccc2nsnc12 0.487%, COc1ccc(-c2noc(CSc3nnc(Cc4ccccc4)n3-c3ccc(F)cc3)n2)cc1 20.5%, Cc1ccc(Cn2c(CN3CCC(C(=O)O)CC3)cc3ccccc32)cc1 -5.08%, CCc1ccc(NC(=O)CSc2nnc(CC)c(CC)n2)cc1 4.72%, CCN(CC)S(=O)(=O)c1cc(-c2ccc(=O)n(C(C)C(=O)Nc3cccc(C#N)c3)n2)ccc1C (stereo not drawn) -1.29%, CCOC(=O)C1CCN(C(=O)c2cnn(-c3ccc(F)cc3)c2-n2cccc2)CC1 -0.728%, CCOC(=O)c1[nH]c2c(c1Cc1ccccc1)C(=O)CC(c1ccc(C(C)(C)C)cc1)C2 (stereo not drawn) 6.57%, COc1cc(C2c3c(-c4c(C)cc(C)cc4O)n[nH]c3C(=O)N2Cc2ccco2)cc(OC)c1OC (stereo not drawn) -0.124%, CCOC(=O)C(C)Sc1nnc2cc(C)c3ccccc3n12 (stereo not drawn) 26.1%, COc1ccc(CNC(=O)CCCn2ccc3cc(S(=O)(=O)N4CCCC4)ccc32)cc1 -29.7%, CCOc1cc(-c2nnc(SCC(=O)NC3CCCCC3)nc2-c2ccc(OC)c(OCC)c2)ccc1OC -2.09%, CC(C)NC(=O)C1CCCN(c2ncnc3onc(-c4ccc(F)cc4)c23)C1 (stereo not drawn) -15.7%, Cc1ccc(-n2nc(C(=O)N(C)c3ccc(C)c(C)c3)c3c4ccccc4n(C)c3c2=O)cc1 -5.03%, Cc1ccc(NC(=O)c2c(C)oc3ccc(O)c(CN4CCN(Cc5ccccc5)CC4)c23)cc1 8.66%, COc1ccc(OC)c(-c2cc(C(=O)Nc3c(C)nn(Cc4ccc(C)cc4)c3C)no2)c1 -4.39%, O=[N+]([O-])c1ccc(S(=O)(=O)N2CCn3cccc3C2c2ccc(Br)cc2)cc1 (stereo not drawn) -8.1%, COc1ccc(C(CNC(=O)c2oc3cc(Br)ccc3c2C)N2CCCCC2)cc1 (stereo not drawn) -4.48%, Cc1ccccc1CNC(=O)C1CCCCN1S(=O)(=O)c1ccc(F)cc1 (stereo not drawn) 20.6%, Cc1ccc(-n2ncc3c(NCCCN(C)C)ncnc32)cc1Cl 3.11%, O=C(Cn1ncc2c3ccccc3n(Cc3ccccc3)c2c1=O)NCc1ccccn1 2.26%, COc1ccc(Nc2ncc3c(n2)CCN(Cc2sccc2C)C3)c(OC)c1 -2.55%, Cc1cccc(NC(=O)CCCn2nc(C)c3c(C)n(-c4ccccc4)nc3c2=O)c1C 7.76%, Cc1cc(=O)n(CC(=O)Nc2ccc(Cl)c(Cl)c2)c(-n2nc(C)cc2C)n1 23.6%, CCOC(=O)CN1C(=O)N(c2ccc(C)c(C)c2)S(=O)(=O)c2ccccc21 -1.06%, Oc1ccc(OCc2ccccc2)cc1 4.01%, COC(=O)c1ccccc1NC(=O)CSc1n[nH]c(CC(C)C)n1 -8.4%, O=C(CC1N=C2c3ccccc3N=C(SCc3cccc(F)c3)N2C1=O)NCc1cccs1 (stereo not drawn) -3.52%, COc1cccc(NC(=O)c2oc3ccccc3c2NC(=O)c2ccccc2C)c1 5.78%, CCOc1ccc(CNC(=O)c2ccc(CSc3nc4ccncc4n3Cc3ccc(F)cc3)cc2)cc1 2.6%, COc1ccc(OC)c(Nc2nc3ccccc3nc2-n2nc(C)cc2C)c1 2.92%, Cc1ccc(CNC(=O)CCNS(=O)(=O)c2ccc3c(c2)CCCC(=O)N3)cc1 -13.5%, CCCCN(CCCC)CCCNC(=O)c1ccc2nc(N3CCCCC3)sc2c1 -0.673%, Cc1c(C(=O)OC2CCC(C)CC2)[nH]c2c1C(=O)CC(c1ccc(F)cc1)C2 (stereo not drawn) 1.84%, Cc1ccc(Sc2c(C)nn(C(C)(C)C)c2OC(=O)CC(C)C)cc1 -11.4%, CCOC(=O)c1cccc(NC(=O)CCc2c(C)nn(-c3ccc(N4CCCCC4)nn3)c2C)c1 -20.6%, CCCCN1C(=O)c2[nH]nc(-c3ccccc3O)c2C1c1ccc(OCc2ccccc2)c(OC)c1 (stereo not drawn) -26.2%, Cc1ccccc1NC(=O)c1c(NC(=O)c2ccccc2F)sc2c1CCC(C)C2 (stereo not drawn) -1.38%, COc1ccc(Cn2ccc3nc(C)c(C(=O)N4CCN(c5ccc(F)cc5)CC4)cc3c2=O)cc1 9.94%, CC(C)(C)c1[nH]cnc1C=c1[nH]c(=O)c(=Cc2ccccc2)[nH]c1=O 0.182% [at 92.2 µM], CSc1ccc(C2c3c(-c4ccccc4O)n[nH]c3C(=O)N2Cc2ccncc2)cc1 (stereo not drawn) -15.6%, Cc1ccc2nc(CSc3nnc(NC(=O)C(C)C)s3)cc(=O)n2c1 -0.204%, Cc1cccc2c(=O)cc(CSc3ccccc3NC(=O)c3cccc(Cl)c3)[nH]c12 1.47%, CCc1ccc(-n2nc(C)c3c(C)cc(=O)n(CC(=O)Nc4cc(Cl)ccc4OC)c32)cc1 -9.81%, CCCN1CCN(c2nnc(-n3cccc3C(=O)Nc3ccccc3C(F)(F)F)s2)CC1 -7.8%, COc1cc(NC(=O)NCCc2c(C)nn(C)c2C)cc(OC)c1OC -10%, Cc1cccc(C(=O)NCCc2nc3ccccc3n2CCC(C)C)c1 1.11%, CN[C@@H]1[C@@H](O)[C@@H](O[C@@H]2[C@@H](O)[C@H](O[C@H]3O[C@H](CN)[C@@H](O)[C@H](O)[C@@H]3O)[C@@H](N)C[C@@H]2NC(=O)[C@@H](O)CN)OC[C@]1(C)O 0.661%
